Experimental data reported in patent US20250213694A1 (SHANGHAI SIMNOVA BIOTECHNOLOGY, published 2025).
Positions count from the first letter of the chain named.

T1: human BCMA protein (human, UniProt Q02223 1-54)
T1 construct: also called B cell maturation antigen
T1 sequence (looked up): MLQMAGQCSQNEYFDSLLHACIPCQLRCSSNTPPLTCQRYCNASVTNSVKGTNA

B1: ROR1-1-hFc (Fc fusion)
chain: DLQLQESGPGLVKPSQSLSLTCSVTGYSITSGYDWNWIRQFPGNKLEWMGYINYDGSNNYNPSLKNRISITRDTSKNQFFLRLSSVTTEDTATYFCARGILRGYFDYWGQGTTLTVSSGGGGSGGGGSGGGGSEIVLTQSPGSLAVSLGQRATISCRASESVDNFGLSFMHWYQQKPGQPPKLLIYRASNLESGIPARFSGSGSRTDFTLTINPVETDDVATYYCQQSNKDPYTFGGGTKLEIK[gap - human IgG1 Fc with C220S (EU numbers)]
notes: ROR1-1-scFv (VH-linker-VL) cloned into a vector with signal peptide and human Fc; also called ROR1-1-scFv-hFc; chimeric antibody ROR1-1-hFc
B2: hu-VHH2-hFc (Fc fusion)
chain: EVQLVESGGGLVQPGGSLRLSCAASESISSIHIMAWYRQAPGKQRELVAGIRNDGSTVYVDSVKGRFTISRDNAKNSVYLQMNSLRAEDTAVYYCNADQGFGSYSEWERRSRWGQGTTVTVSS[gap - human IgG1 Fc with C220S (EU numbers)]
notes: Humanized VHH2 fused to human IgG1 Fc; also called humanized antibody hu-VHH2-hFc
B3: VHH1-hFc (Fc fusion)
chain: QVQLVESGGGLVQPGGSLRLSCSGSGFTLDYYMIGWFRQAPGKEREGLSSISPADGSTYYADSVKGRFTISRDSAKNTVYLQMNNLKPEDTALYYCAAGNEATISWGFGPWEYDYWGQGTQVTVSS[gap - human IgG1 Fc with C220S (EU numbers)]
notes: VHH1 recombined into an expression vector for human IgG1 Fc; also called chimeric antibody VHH1-hFc
B4: hu-VHH1-hFc (Fc fusion)
chain: B3 chain with Q1E, G24A, A75S, N85S, K87R, P88A, L93V, Q121M
notes: Humanized VHH1 fused to human IgG1 Fc; also called humanized antibody hu-VHH1-hFc

Columns and labels:
human ROR1 protein = target: T2, human ROR1 protein (human, UniProt Q01973 in part); test: affinity detection, method not stated
T2 construct: The immunogen was a human ROR-1 fusion protein (ACRO, RO1-H5250)

human BCMA protein = target: T1, human BCMA protein; test: affinity detection, method not stated

human ROR1 protein, sequence (Q01973 30-403 limits assumed): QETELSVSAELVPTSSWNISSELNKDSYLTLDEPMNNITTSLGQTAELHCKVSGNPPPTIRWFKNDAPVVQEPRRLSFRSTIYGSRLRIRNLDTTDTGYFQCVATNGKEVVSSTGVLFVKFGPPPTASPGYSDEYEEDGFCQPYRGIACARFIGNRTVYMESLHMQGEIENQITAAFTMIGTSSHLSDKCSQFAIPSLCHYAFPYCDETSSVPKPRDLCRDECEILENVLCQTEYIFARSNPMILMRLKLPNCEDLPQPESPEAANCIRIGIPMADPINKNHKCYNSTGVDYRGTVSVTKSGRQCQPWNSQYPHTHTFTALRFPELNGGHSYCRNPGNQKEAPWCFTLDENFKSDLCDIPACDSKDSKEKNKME

Binder	Kd (human ROR1 protein) [nM]	Kd (human BCMA protein) [nM]
B1	323	
B2		0.0882
B3		0.527
B4		0.613
